± gives the standard deviation of the averaged measurements. The list shows a part of the results.
Each sequence was assayed on PfAP2-I AP2 domain 3 (GST-tagged) (assay: gcPBM binding intensity (ln(normalized median fluorescence intensity)); higher = stronger DNA binding).
Method in brief: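 Plasmodium falciparum DNA-binding domains carrying a GST tag were expressed in E. coli and applied for 1 h, at about 25 μg on average, to an Agilent 4 × 180k array. The array held primer-extended double-stranded 36-bp intergenic genomic probes together with negative controls, and binding took place in 1× PBS with 1% milk, 0.2 mg/ml BSA, 0.5% salmon testes DNA and 0.03% Triton X-100. An Alexa488 anti-GST antibody detected bound protein, and the array was scanned at 488 nm. Binding intensity is taken as the highest Masliner-normalised natural-log median intensity across replicate spots of either probe orientation.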

Sequence | gcPBM binding intensity (ln)
ACAAAAGGGGAATACACACACATATATAAATAAATA [CACACA_site7111] | 7.95 ± 0.45
CATATTTTTATGAGATGTACAATAAGAAATATGTAA [XGTACX_site2389] | 7.99 ± 0.54
TTTTTTTTTTTATATACTGGAAATATATTTAATTTA [GTGCAC_negctrl_site250] | 7.87 ± 0.61
TACAAAATAGTTTACACACACATATATATACATATA [CACACA_site2615] | 7.77 ± 0.37
TTTATTTTTATGGTCACACATATTTTTAAAACTATA [CACACA_site4372] | 7.82 ± 0.5
CACCCATAGAAACACACACACGCATAAAAAAAAAAA [CACACA_site1513] | 8.19 ± 0.7
TAAAAACAAAAATGCACACATAATAAGCATATGTAT [CACACA_site3469] | 8.54 ± 0.11
TATTCTAATATTTATACACACATAACTTTGATAAAT [CACACA_site6418] | 7.61 ± 0.54
TATATATAGCATATTTCACACACACCGAATGAATAT [CACACA_site9182] | 7.8 ± 0.45
ATTAATTATTGTAATTGTACATTTTATATATATCCA [XGTACX_site2105] | 7.7 ± 0.55
TTTCTTGGGAGACATGCATGTACCAGAACAAAATAA [TGCATGCA_site272] | 8.21 ± 0.61
TATATAAATAGACACACACACATATAAATATAAATA [CACACA_site6503] | 7.84 ± 0.46
TACCTAGGATTAAAGTGTCCACATAATTTAAATAAT [XGTACX_site6736] | 7.79 ± 0.44
TTCTTCTGTTTTATTACACACCATTTTGTGGATACA [CACACA_site5181] | 8.38 ± 0.71
TTTTTTATTATATAATTGTATATAAAATTATAATTT [GTGCAC_negctrl_site733] | 7.67 ± 0.47
TAACTTGAATGGATATGTACATATATATATATATAT [XGTACX_site5990] | 9.24 ± 0.12
AATAAACATATATACACACACAAAAAAAAAAACATA [CACACA_site424] | 7.67 ± 0.52
TAGATGTATGTACATACACACATATATAAATAAATA [CACACA_site1788] | 7.83 ± 0.51
ATTCATCTATTTTGTAGTACTAAATATATATCTACT [XGTACX_site8790] | 7.93 ± 0.73
GCGAAATATTATTATAGTATACAAATACTTCTATGA [CACACA_negctrl_site197] | 7.42 ± 0.52
GGTAAGTACGACTTGACACACATACCCATATATATA [CACACA_site4837] | 8.36 ± 1.1
ACAGTATCTGGTAGCTGTACGAGTCGTAGAGTGCAG [XGTACX_site2015] | 8.38 ± 0.33
GGTGTTAAAAAATACACACACAAAAAAAAAAAAAAA [CACACA_site138] | 7.95 ± 0.58

Sequence | gcPBM binding intensity (ln)
TTTTTTTAATTTGGTTGTACTTAAAAAAAAAACAGA [XGTACX_site5788] | 8.01 ± 0.16
ATTATTTTACTAAAAGATATTCCTTTTTTTTGTACT [CACACA_negctrl_site998] | 7.63 ± 0.69
ATATGGCTAAAAGTTGCACACACACTAATAAAAAAA [CACACA_site9082] | 8.68 ± 0.15
TATGTATTTATATTAACACACAAAAAAAAAAAAAAA [CACACA_site5070] | 8.22 ± 0.54
ATATGCCTAATAAAATGTACGTTTGTTTTATTTATT [XGTACX_site3833] | 7.83 ± 0.54
ATATATATATTTTGGTAGCACCTCCTTTTTTTTTTT | 9.315 ± 0.092
TATAACAAGTTATAAAGTACAAATGTTGAATTTTAT [XGTACX_site4673] | 7.49 ± 0.59
TCGGGAGGGGGGAAGCGTACATATATAAAATTATTA [XGTACX_site4683] | 10.6 ± 0.53
TAAAAATTAATATAAACACACAAAAATTAATAAATA [CACACA_site381] | 7.61 ± 0.63
TATAGATACAGATACACACACACACCGACATATATA [CACACA_site5832] | 7.74 ± 0.38
GAATGTATATTCATGTATTTATTATTATTATTATTA [XGTACX_negctrl_site156] | 7.83 ± 0.61
ACTACTCCATTAAGTAGTACACAAAAAAAAAAAATA [XGTACX_site7031] | 7.92 ± 0.28
TTACAAATGTTTTACACACACATAATTGTATCAATT [CACACA_site6147] | 7.86 ± 0.4
TAATAAAACATATATACACACATTATAAATACATAT [CACACA_site5014] | 7.72 ± 0.63
TATAAATAAAAACACACACACATATATATATATATA [CACACA_site2319] | 9.45 ± 0.52
CCATTTTAAATATGCACACAGATGCACTAACCCATT [CACACA_site1883] | 10.345 ± 0.007
TAAAAAATAAAAAAAGCACACACATATATATATATA [CACACA_site8567] | 9.4 ± 0.25
AAAATAAGAAATTGAAAAATTGAAAACAAAATTAAA [CACACA_negctrl_site1285] | 7.37 ± 0.61
TACATGATATATCACACACACATATAAATATATATA [CACACA_site2831] | 7.92 ± 0.71
TTCACAAAATATTATTGTACATTAAAATATTTATAT [XGTACX_site2535] | 7.63 ± 0.42
TATAAAACGGATGAACAACAAATCATATGGCACAAA [TGCATGCA_negctrl_site608] | 10.2 ± 0.18
GAAAATTTCTTATTTTGTACACACAATAAATATTCA [XGTACX_site3267] | 7.71 ± 0.49
GTTTTTTTATTTCATCGTACAAAAAAGAAGGCTTTA [XGTACX_site5291] | 7.86 ± 0.49

Sequence | gcPBM binding intensity (ln)
TTATATATTTATTTATGTACATATTTTTTTATTATA [XGTACX_site6115] | 7.96 ± 0.26
TAAATATGTATTCATACATGCACATATATATATATA [TGCATGCA_site584] | 9.53 ± 0.33
ATATCCTTAAAAGATACACACATATGAATATTTTGT [CACACA_site3847] | 7.61 ± 0.42
TTTATACTTGTAAATGCACACATAAGATGCGACTAA [CACACA_site8662] | 9.51 ± 0.26
GTTTGTAAATATTTTACACACATATATATATATATA [CACACA_site1075] | 9.23 ± 0.5
ATTATAGACACGCGCACACACAACAAAAAAAAAAAA [CACACA_site9180] | 8.47 ± 0.59
TTGGGGTATCTTCCTATGCACACTTGTTATGTACTA [CACACA_site831] | 9.11 ± 0.38
ATACTTTTAAATTGATGTACTTTATTTATAAGGTGA [XGTACX_site6746] | 7.7 ± 0.3
TTGATTACTAGAAATGCACACACTGATAAAATAAGG [CACACA_site4134] | 8.95 ± 0.35
TTGCTCACAAGAAGCACACAAAAAAAGAAAAAAAAA [CACACA_site4047] | 8.12 ± 0.57
AATATATATATTAGAGTGCACATAATTATTTGCTAA | 9.95 ± 0.028
TATGTCAAATATATATGTACACAAATATACTATTAA [XGTACX_site2643] | 7.62 ± 0.28
ATAATCACAAATAATTGTACATTTTGTTATATATAT [XGTACX_site7704] | 8.13 ± 0.62
AAAAATTTCATATTCACACACAAAAAAAAAAAATAT [CACACA_site1592] | 7.81 ± 0.68
TGATATATATATATATATATAACACACGCAAAAAAA [TGCATGCA_negctrl_site240] | 8.3 ± 0.81
TTTTTAATTTATTGTGTGCACACAACTATGAGTTTT | 9.7 ± 0.31
ATATGATATATATTCGGTACACATATATATAAAGAG [XGTACX_site430] | 8.3 ± 0.42
ATTTAAATAATATTCACACACAAAATTATATTTTAA [CACACA_site219] | 7.63 ± 0.47
AAGTTTTCTTAAAATTGTACTTTTCAAAAATAATCT [XGTACX_site277] | 7.75 ± 0.4
AAAACTTGTCAGAATGGACACACGAATTAAAGGCCT [CACACA_site1215] | 7.54 ± 0.86
TTATTTTTTATTATGTGTACATAACATCGCGATACA [XGTACX_site4359] | 8.18 ± 0.59
GATTTAGTTATTTAAACATGCAATTTATATAGAATT [TGCATGCA_site47] | 7.82 ± 0.93
CAACATTCGTATATCACACATTTGCATGTTGTCAAT [CACACA_site4470] | 7.79 ± 0.66

Sequence | gcPBM binding intensity (ln)
TATTTATACATACATACACACATATAGATTTATATT [CACACA_site7851] | 7.91 ± 0.41
TCGTATATGGATTTTGCACACAATTATAATTTAAAT [CACACA_site868] | 9.26 ± 0.3
TATCCCTTAGAATACACACCCATATGAGCGTGAACT [CACACA_site2951] | 7.58 ± 0.53
TATATATTTTAAAATAGTACATATTATATAACCCAT [XGTACX_site2194] | 8.03 ± 0.45
ATATATATATATATATGTACACATTAATGTTTTTTT [XGTACX_site167] | 9.53 ± 0.81
TATTTTTTTTTTTAATGTACAAACAAATTATGTTGG [XGTACX_site2873] | 7.71 ± 0.45
ATTTTTTTTATGAGGTGTACTCATATAATAACTACA [XGTACX_site5074] | 8.25 ± 0.042
TTTTCTAAAGTAAGTTAAGATATGCAAAAAAAAGAA [GTGCAC_negctrl_site242] | 9.06 ± 0.25
AATAAAAATTGGTAGGCACACATGGAACTATTAAAA [CACACA_site1257] | 8.07 ± 0.79
TATAAAAGGTAAGAGTGTACAAGTAAAAAATTTTTA [XGTACX_site771] | 7.86 ± 0.61
ATGAACTATATTAAATCACACATTATCATTTTATAT [CACACA_site4989] | 7.71 ± 0.55
TTTTTATAAGCATAAAGTACAAATATTTTTTAGTTG [XGTACX_site4140] | 7.72 ± 0.21
TAAATCCGTTTGATGGGTACATACATACATACATAT [XGTACX_site8889] | 7.75 ± 0.52
AACACCCATGGACACACACACATATATATATATATA [CACACA_site5809] | 9.31 ± 0.23
ACAATAAAATATGGCACACATATATATATATATTTA [CACACA_site3] | 8.79 ± 0.18
ATTTATTTTAGTAAAGCACACGTGTAAAATATATCT [CACACA_site4820] | 9.455 ± 0.092
TTATTACATATAAAGGAAAATAGCATCTAGATTAAA [XGTACX_negctrl_site435] | 7.54 ± 0.76
TCTTTTTTGAACTAGCGTACATGAAAATATTTATAG [XGTACX_site7359] | 7.83 ± 0.28
AAAAAAAAAAAAAAAAAATACATATACATTTGTGCA [CACACA_negctrl_site1431] | 9.07 ± 0.35
TTTTTATTTATATATAAGGAAAATGCGGTATATATT [CACACA_negctrl_site1770] | 8.12 ± 0.7

Reference: the supplement of paper PMC11417369
